From PubChem BioAssay (NCATS)
Inconclusive results, whose numbers are uncertain, are shown with a selection of clear calls. Where a call stands in place of a potency, no number is given. For part of these data: Potencies of inconclusive entries are doubtful fits and often do not repeat. Active and inactive are the calls of the source. The call rests on the fitted dose curve; in most records, active means well fitted curve in the direction sought with a large enough effect; inconclusive means small, poorly fitted or top-dose-only effect, or another doubt; inactive means no such curve, though single readings can be large; an effect the other way counts as inactive or inconclusive.

Columns and labels:
[1] = P-glycoprotein substrates identified in KB-8-5-11 adenocarcinoma cell line, qHTS therapeutic library screen (AID 1346987); conditions: activity change, negative = cytotoxicity: at 44.5 µM (top of the series); further: nearly all actives have a fitted effect of over 65% in size; further: potency means the concentration at half of the fitted maximal effect
How it was run: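 Compounds are pinned in dose-response onto KB-8-5-11 cells (500 cells/well, colchicine-free medium) and left 72 h at 37 degree C. CellTiter-Glo luminescence then yields AC50 values.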

[2] = test system: Zika virus NS2B-NS3 protease (unlinked complex); assay: Primary screen GU Rhodamine qHTS for Zika virus inhibitors: Unlinked NS2B-NS3 protease assay (AID 1347159); conditions: Recombinant ZIKV NS2B-NS3 protease, Rhodamine110 substrate fluorescence; series mostly up to 107 µM; further: potency means the concentration at half of the fitted maximal effect; nearly all actives have a fitted effect of over 60% in size
How it was run: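 Enzyme 25 nM in Tris-HCl pH 8.0 + 0.01% Tween 20; compounds up to 114 microM, 15 min RT dark; + Rhod110 substrate 1.5 microM; read t0 and 15 min; delta fluorescence → % inhibition → 4-parameter Hill fit.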

[3] = Primary qHTS for inhibitors of nuclear receptor binding SET domain protein 2 (NSD2) in an RCH-ACV wild type WT cells (2C) (AID 1645877); conditions: activity change, negative = cell killing: at 44.9 µM (top of the series) unless noted; further: nearly all actives have a fitted effect of over 70% in size
[4] = test system: Zika virus NS2B-NS3 protease (linked construct); assay: Primary screen NINDS Rhodamine qHTS for Zika virus inhibitors (AID 1347160); further: nearly all actives have a fitted effect of over 55% in size
How it was run: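 Enzyme (25 nM, linked NS2B-NS3) was preincubated 15 min with compound in 10 mM Tris-HCl pH 8.0, 0.01% Tween 20. Rhodamine110 substrate (1.5 microM) was then added and fluorescence read at start and after 15 min.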

[5] = Primary qHTS for inhibitors of nuclear receptor binding SET domain protein 2 (NSD2) in an isogenic RCH-ACV NSD2 p.E1099K mutant (9B) (AID 1645876); conditions: activity change, negative = viability loss: at 44.9 µM (top of the series) unless noted; further: nearly all actives have a fitted effect of over 70% in size
[6] = Primary fluorescence-based thiol-reactive (MSTI) qHTS assay for identification of artifact compounds. (AID 1845221);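 further: potency means the concentration at half of the fitted maximal effect; thiol-reactive compounds lower the probe fluorescence signal; nearly all actives have a fitted effect of over 65% in size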
How it was run: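 MSTI probe at 4 uM final in 2% DMSO/PBS pH 7.4; compounds, 1 h at room temperature in dark. Fluorescence Ex/Em 525/598 nm, normalised to Acetyl-MSTI and MSTI, fitted to 4-parameter Hill.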

[7] = Primary redox qHTS assay for identification of artifact compounds. (AID 1845223); further: potency means the concentration at half of the fitted maximal effect
How it was run: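 Redox-cycling detection via DTT (250 uM final) oxidation coupled to Amplex Red (25 uM)/HRP (250 mU/mL) in HBSS. 15 min preincubation plus 30 min after DTT, room temperature. Ex/Em 525/598 nm; 4-parameter Hill fit against DMSO and 10 uM DA3003.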
Tags describe the fitted curve by direction and shape.

With `CCC[C@@H]1C[C@@H](C(=O)N[C@@H]([C@H]2O[C@H](SC)[C@H](O)[C@@H](O)[C@@H]2O)[C@@H](C)O)N(C)C1` the Potency [1] was “inactive”, the Potency [2] was inconclusive: 89.1 µM [inhibitor, partial curve, poor fit] and the Potency [3] was “inactive”.

For `C=C1C(=O)OC[C@H]2C(C(=O)O)=CC3CC(C)(C)C[C@@]132` (stereo not given in full), the Potency [1] was “inactive”, the Potency [2] was inconclusive: 50.1 µM [inhibitor, partial curve] and the Potency [4] was “inactive”. For the same compound, the Potency [5] was “inactive”, the Potency [6] was active: 21.2 µM and the Potency [7] was inconclusive: 37.7 µM [activator, partial curve, poor fit].

In the case of `C/C=C/C=C/C(O)=C1/C(=O)[C@]2(C)C(=O)[C@@](C)(O)[C@H]1[C@H]([C@@]1(C)OC(=O)C(C)=C1O)[C@H]2C(=O)CC/C=C/C`, the Potency [1] is reported as “inactive”, the Potency [2] is reported as inconclusive: 31.6 µM [inhibitor, partial curve, poor fit] and the Potency [3] is reported as “inactive”. For the same compound, the Potency [7] was inconclusive: 14.6 µM [activator, partial curve, poor fit].

With `COC(=O)C[C@](O)(CCCC(C)(C)O)C(=O)O[C@@H]1C(OC)=CC23CCCN2CCc2cc4c(cc2[C@H]13)OCO4` (stereo not given in full) the Potency [1] was active: 13 µM.

For `CC[C@H]1OC(=O)[C@H](C)[C@@H](O[C@H]2C[C@@](C)(OC)[C@@H](O)[C@H](C)O2)C(C)[C@@H](O[C@@H]2O[C@H](C)C[C@H](N(C)C)[C@H]2O)[C@](C)(O)C[C@@H](C)CN(C)[C@H](C)[C@@H](O)[C@]1(C)O` (stereo not given in full), the Potency [1] was “inactive”.
